{"source": "ChEMBL document CHEMBL4888484", "about": "“Replenishing the malaria drug discovery pipeline: Screening and hit evaluation of the MMV Hit Generation Library 1 (HGL1) against asexual blood stage Plasmodium falciparum ,using a nano luciferase reporter read-out” (2022)", "note": "The whole screen tested about 150,000 compounds, of which about 540 (0.36%) showed an effect of 50% or more. Some of the results follow.", "data": [{"tested_on": "Plasmodium falciparum", "assay": "Primary screen in NF54 nanoGlo assay, in single point, at 2uM, 72h; a lower Z score goes with more inhibition", "assay_type": "functional, Erythrocyte", "settings": "timepoint 72 hour", "units": {"% Inhibition": "%"}, "values": [{"smiles": "COC(=O)C(Cc1c[nH]c2cc(F)ccc12)NC(=O)C1C2CCCC21", "note": "(stereo not drawn)", "% Inhibition": -14, "Z score": 1.55}, {"smiles": "Cc1nc(C)c(C(=O)O[C@H](c2c(C)nn(C)c2C)C(F)(F)F)o1", "% Inhibition": 1, "Z score": -0.08}, {"smiles": "Clc1cc2c(cc1NC1CCCCC1)OCO2", "% Inhibition": 4, "Z score": -0.52}, {"smiles": "Cc1ccc(NC(=O)C2(NC(=O)c3ccccn3)CCCCC2)cc1Br", "% Inhibition": -44, "Z score": 5.22}, {"smiles": "C=CCNC(=O)CN(CC)c1cccc(O)c1", "% Inhibition": -10, "Z score": 1.03}, {"smiles": "CC1CN(c2ncc(F)cn2)CCN(c2ncc(F)cn2)C1", "% Inhibition": -11, "Z score": 2.06}, {"smiles": "OC[C@H](NCc1noc(-c2ccsc2)n1)c1ccccc1", "% Inhibition": -12, "Z score": 1.59}, {"smiles": "Cc1sc(-c2ccc(C(F)(F)F)cc2)nc1-c1ccc2c(c1)NC(=O)CO2", "% Inhibition": -14, "Z score": 1.82}, {"smiles": "Cc1ccccc1NC(=O)N1CCCC[C@H](c2ccccc2)C1", "% Inhibition": -14, "Z score": 2.14}, {"smiles": "Cc1cnccc1-c1ccc(C(=O)N2CC[C@H](O)C[C@@H]2C)s1", "% Inhibition": -9, "Z score": 1.75}, {"smiles": "O=C([C@@H]1CCCN1C1CC1)N1CCC2(CC1)OCCc1ccccc12", "% Inhibition": -14, "Z score": 1.46}, {"smiles": "C[C@H](O)CCOc1ccc2c(n1)CCC2", "% Inhibition": -3, "Z score": 0.48}, {"smiles": "CCn1c(CN2CCC[C@H]2c2nc(-c3ccncc3)no2)nc2ccccc21", "% Inhibition": -10, "Z score": 1.45}, {"smiles": "CCc1nnc2n1CCN(c1cccc(F)c1C#N)C2", "% Inhibition": -2, "Z score": 0.27}, {"smiles": "CC(C)(c1ccccc1)c1nnc(NC(=O)NC[C@H]2CCOC2)s1", "% Inhibition": 11, "Z score": -1.48}, {"smiles": "O=S(=O)(NC[C@]1(O)CCCc2ccccc21)c1cncc(F)c1", "% Inhibition": 0, "Z score": 0.01}, {"smiles": "COc1ccc(C(=O)N(Cc2ccc(OS(=O)(=O)c3ccc(F)cc3)cc2)C(C)C)c(OC)c1", "% Inhibition": -14, "Z score": 1.5}, {"smiles": "CC(C)(C)OC(=O)N1C[C@@H](F)C[C@@H]1C(=O)NCC=Cc1cccnc1", "% Inhibition": -10, "Z score": 1.86}, {"smiles": "C[C@@]1(C2CCN(C(=O)Nc3cccc(F)c3)CC2)NC(=O)NC1=O", "% Inhibition": 2, "Z score": -0.25}, {"smiles": "O=C(NCc1nnc2n1CCC2)c1ccc2c(c1)OCO2", "% Inhibition": 2, "Z score": -0.37}, {"smiles": "CCCc1noc(-c2cccn3c(CC(=O)N4CCCCCC4)nnc23)n1", "% Inhibition": -8, "Z score": 1.36}, {"smiles": "CCn1nc([C@H]2CCOC2)nc1Cn1nc2ccccc2n1", "% Inhibition": 12, "Z score": -1.57}, {"smiles": "CC(C)C(C)NC(=O)c1cc(Br)c(C(=O)NC(C)C(C)C)cc1Br", "note": "(stereo not drawn)", "% Inhibition": 3, "Z score": -0.51}, {"smiles": "Cc1nc2cc(C(=O)NCC#C[C@@H]3CCCCO3)ccc2c(=O)[nH]1", "% Inhibition": 7, "Z score": -0.97}, {"smiles": "CC(=O)N[C@@H](C)C(=O)Nc1ccc(F)cc1C", "% Inhibition": 7, "Z score": -1.02}, {"smiles": "COc1ccc(CNc2ncnc3c2nc2n3CCCCC2)cc1", "% Inhibition": -6, "Z score": 1.16}, {"smiles": "Cc1c(CN[C@@H](Cc2c(F)cccc2Cl)c2ccco2)cnn1C", "% Inhibition": -11, "Z score": 1.16}, {"smiles": "CN(CC(=O)NC1CC1)C(=O)c1cc2c(ccc3ccccc32)[nH]1", "% Inhibition": -1, "Z score": 0.14}, {"smiles": "Cn1c2c(cc(C(=O)N3CCOC[C@@H]3CC(N)=O)c1=O)CCCC2", "% Inhibition": -4, "Z score": 0.48}, {"smiles": "CCCCn1ncnc1CCc1n[nH]c2c1CCCC2", "% Inhibition": -12, "Z score": 1.69}, {"smiles": "COc1ccc(-c2cn[nH]c(=O)n2)cc1", "% Inhibition": -17, "Z score": 1.55}, {"smiles": "O=C(NC1CCCC1)N(CC1CCCCC1)C1CC1", "% Inhibition": -5, "Z score": 0.49}, {"smiles": "CC[C@@H](C(=O)Nc1ccc(Cl)cc1C)n1nc(C)c2nn(-c3ccccc3)c(C)c2c1=O", "% Inhibition": -4, "Z score": 0.54}, {"smiles": "O=C(c1n[nH]c2c1CCC2)N1CCC(c2nnc3n2CCCCC3)CC1", "% Inhibition": -7, "Z score": 1.17}, {"smiles": "Cc1cc(C)n(CCN2CCN(S(=O)(=O)c3cccs3)CC2)n1", "% Inhibition": -7, "Z score": 1.28}, {"smiles": "Cc1cccc(OCCn2c(=O)ccc3ccccc32)c1C", "% Inhibition": 13, "Z score": -1.75}, {"smiles": "Cc1cccc(O[C@H]2CCN(S(=O)(=O)c3cc(Cl)ccc3C)C2)n1", "% Inhibition": -15, "Z score": 2.92}, {"smiles": "COCC(=O)N[C@H]1[C@H](c2cccs2)N(C(=O)c2ccccc2)CC[C@@]1(C)O", "% Inhibition": 14, "Z score": -2.16}, {"smiles": "Cc1noc(C)c1S(=O)(=O)N(C)CCOc1ccc(Br)cc1", "% Inhibition": 31, "Z score": -3.94}, {"smiles": "CC(C)C(=O)N(Cc1ccccc1)C[C@H]1CC(c2ccccc2)=NO1", "% Inhibition": -8, "Z score": 1.24}, {"smiles": "O=c1c(Nc2ccccc2Cl)nccn1C1CC1", "% Inhibition": -11, "Z score": 1.28}, {"smiles": "COc1ccc(-c2noc(CN3CCc4ccccc43)n2)cc1OC", "% Inhibition": -13, "Z score": 1.45}, {"smiles": "O=C(O)C(c1cccc(Cl)c1Cl)N1C[C@@H](CO)[C@H](c2ccsc2)C1", "note": "(stereo partly drawn)", "% Inhibition": -14, "Z score": 2.03}, {"smiles": "Cc1c(NC(=O)c2nc(C)n(-c3ccccc3Cl)n2)cccc1C(=O)N1CCCC1", "% Inhibition": -11, "Z score": 1.5}, {"smiles": "Cc1cnc([C@@H](NCc2ccc(-c3ccc(F)cc3C)o2)C2CC2)s1", "% Inhibition": -5, "Z score": 0.71}, {"smiles": "CCOCCN(C)[C@@H](C)c1nccc(N)n1", "% Inhibition": 12, "Z score": -1.67}, {"smiles": "COCCOCC(=O)N1CC2(C)CN(Cc3ccccc3)CC2(C)C1", "note": "(stereo not drawn)", "% Inhibition": 0, "Z score": -0.06}, {"smiles": "CCCc1cnc(C)nc1N1Cc2cnn(CCO)c2C1", "% Inhibition": -11, "Z score": 2.17}, {"smiles": "CC(C)NC(=O)c1ccnc(N2CC(c3cccnc3)C2)c1", "% Inhibition": 1, "Z score": -0.25}, {"smiles": "COC(C)(C)c1nc(C)c(C(=O)NC[C@H]2COc3ccccc32)s1", "% Inhibition": -11, "Z score": 1.27}, {"smiles": "Cc1ccccc1N1CCN(c2nccn3c(=O)n(CC(=O)NC4CCCCC4)nc23)CC1", "% Inhibition": -17, "Z score": 1.68}, {"smiles": "CCN(C)C(=O)c1ccc(-c2cc(O)cc(CC[C@H]3CCCCN3)c2)nc1", "% Inhibition": -2, "Z score": 0.34}, {"smiles": "COC1CCC2OCCN(C(=O)N3CCOCC3)C2C1", "note": "(stereo not drawn)", "% Inhibition": 19, "Z score": -2.43}, {"smiles": "CCOc1ccc(CN(CC)C(=O)c2ccc3c(=O)n4c(nc3c2)CCCCC4)cc1OC", "% Inhibition": -16, "Z score": 1.48}]}]}
